This is one part of the list. Cleavage of a single-stranded DNA pool by Rep nickase domains was read by sequencing at 3 µM enzyme and 37 °C for 1 h; the strands have 90 letters, of which the middle is given. Numbers give uncut DNA relative to the enzyme-free pool, as log2; the lower, the more was cut; hits are not called. Shares of all reads are compared; values above 0 arise when much of the pool is cut.
Key:
Assay in all cases: uncleaved DNA left, log2 of reads against the no-enzyme library (log2 ratio); higher = less cleavage (more negative = more Rep cleavage of the k-mer); sequences stand for … in CTCGTCCG…ACCGGAGA
[1] = test system: T1, Rep nickase domain of Muscovy duck circovirus
T1 sequence (residues 1-111 of Rep, tag left off): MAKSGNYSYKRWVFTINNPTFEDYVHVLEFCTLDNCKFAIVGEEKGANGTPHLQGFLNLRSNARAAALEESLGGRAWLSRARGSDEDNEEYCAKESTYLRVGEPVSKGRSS
Experimental: (§1)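 A pool of 90-nt single-stranded DNAs with seven random bases just before the constant AC of the nick site (name = the seven bases) was cut by 3 µM recombinant His6-SUMO-tagged Rep nickase domain (300 nM DNA, 50 mM HEPES pH 8.0, 50 mM NaCl, 1 mM MnCl2, 1 h, 37 °C, three replicates). Uncut DNA was amplified and sequenced.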

[2] = test system: T2, Rep nickase domain of banana bunchy top virus
T2 sequence (residues 1-94 of Rep, tag left off): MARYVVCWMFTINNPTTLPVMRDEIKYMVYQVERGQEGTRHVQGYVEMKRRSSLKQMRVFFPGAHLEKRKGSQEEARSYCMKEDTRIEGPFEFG
Experimental: as §1

[3] = test system: T3, Rep nickase domain of cabbage leaf curl virus
T3 sequence (residues 1-116 of Rep, tag left off): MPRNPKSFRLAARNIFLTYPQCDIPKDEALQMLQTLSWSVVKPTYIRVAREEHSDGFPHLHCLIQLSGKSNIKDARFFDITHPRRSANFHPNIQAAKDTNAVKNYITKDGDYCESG
Experimental: as §1

[4] = test system: T4, Rep nickase domain of chickpea chlorotic dwarf virus
T4 sequence (residues 1-124 of Rep, tag left off): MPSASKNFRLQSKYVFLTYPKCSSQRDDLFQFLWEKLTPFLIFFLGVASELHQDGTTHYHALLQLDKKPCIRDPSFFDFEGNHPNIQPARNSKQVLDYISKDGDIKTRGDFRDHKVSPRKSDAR
Experimental: as §1

[5] = test system: T5, Rep nickase domain of faba bean necrotic yellows virus
T5 sequence (residues 1-98 of Rep, tag left off): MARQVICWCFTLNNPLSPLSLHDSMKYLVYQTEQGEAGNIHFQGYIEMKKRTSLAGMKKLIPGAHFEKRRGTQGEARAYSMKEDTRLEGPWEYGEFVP
Experimental: as §1

[6] = test system: T6, Rep nickase domain of maize striate mosaic virus
T6 sequence (residues 1-117 of Rep, tag left off): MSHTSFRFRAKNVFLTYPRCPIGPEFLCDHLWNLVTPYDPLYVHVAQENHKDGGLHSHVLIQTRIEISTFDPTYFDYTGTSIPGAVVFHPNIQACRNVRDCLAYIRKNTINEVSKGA
Experimental: as §1

[7] = test system: T7, Rep nickase domain of porcine circovirus 2
T7 sequence (residues 2-116 of Rep, tag left off): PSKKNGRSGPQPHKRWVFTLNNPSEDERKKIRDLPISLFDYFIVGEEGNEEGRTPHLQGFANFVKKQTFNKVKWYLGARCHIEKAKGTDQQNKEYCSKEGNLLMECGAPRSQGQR
Experimental: as §1

[8] = test system: T8, Rep nickase domain of tomato yellow leaf curl virus
T8 sequence (residues 1-136 of Rep, tag left off): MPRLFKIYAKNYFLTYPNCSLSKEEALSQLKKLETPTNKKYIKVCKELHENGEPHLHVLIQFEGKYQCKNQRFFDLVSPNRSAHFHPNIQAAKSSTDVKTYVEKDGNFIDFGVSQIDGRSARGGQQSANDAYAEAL
Experimental: as §1

[9] = test system: T9, Rep nickase domain of wheat dwarf virus
T9 sequence (residues 1-137 of Rep, tag left off): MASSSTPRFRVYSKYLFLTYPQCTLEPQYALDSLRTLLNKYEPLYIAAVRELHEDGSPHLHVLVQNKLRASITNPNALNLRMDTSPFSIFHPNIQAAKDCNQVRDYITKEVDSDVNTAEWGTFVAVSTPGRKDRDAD
Experimental: as §1

Sequence | uncleaved DNA left (log2) [1] | uncleaved DNA left (log2) [2] | uncleaved DNA left (log2) [3] | uncleaved DNA left (log2) [4] | uncleaved DNA left (log2) [5] | uncleaved DNA left (log2) [6] | uncleaved DNA left (log2) [7] | uncleaved DNA left (log2) [8] | uncleaved DNA left (log2) [9]
AAGCGTG | 0.0861 | 0.0569 | 0.0445 | 0.495 | 0.0537 | 0.447 | 0.171 | 0.0171 | 0.11
TCCTACA | 0.0209 | 0.0298 | -0.239 | -2.05 | 0.11 | -0.117 | -0.373 | 0.0889 | -0.286
TGATGCG | -0.0224 | -0.0739 | -0.296 | 1 | 0.0311 | 0.552 | 0.106 | -0.178 | 0.00993
AGGTGTA | -0.0469 | -0.0406 | 0.158 | 0.17 | 0.015 | 0.963 | -0.168 | -0.0534 | 0.000503
GTTCTAG | 0.108 | 0.0563 | 0.0941 | 0.245 | -0.0331 | -0.148 | 0.129 | 0.0606 | 0.0313
TTAACCG | -0.218 | 0.0233 | -0.873 | -1.14 | 0.0491 | -1.02 | 0.0255 | -0.0334 | -0.103
AGATAGC | 0.113 | 0.0851 | -0.215 | -0.279 | 0.119 | -0.976 | 0.192 | 0.142 | 0.0102
CCGCCGA | -0.347 | -0.421 | -0.669 | -0.9 | -0.304 | -0.995 | -0.227 | -0.312 | -0.419
CCCACAC | 0.0657 | 0.0715 | 0.0437 | -0.466 | 0.000856 | -0.665 | 0.0127 | -0.126 | -0.0226
GGACCCC | -0.0123 | 0.176 | 0.886 | 1.69 | 0.124 | 2.2 | 0.216 | 0.133 | 0.321
TATTAAG | -0.0787 | -0.0109 | -0.814 | -0.275 | -0.00204 | -0.956 | 0.149 | 0.0298 | 0.0189
GAAGGTA | 0.0931 | 0.0574 | 0.345 | 0.719 | -0.0252 | 1.39 | 0.0731 | 0.0351 | 0.0472
AACGCGT | 0.108 | -0.0647 | -0.956 | -0.705 | 0.064 | -0.923 | 0.0728 | 0.00722 | -0.0798
CGTGGGA | 0.112 | -0.0191 | 0.27 | 0.5 | 0.0388 | 0.0919 | 0.0704 | 0.013 | 0.0327
ACCCTAA | -0.213 | -0.14 | -0.21 | -0.395 | -0.0697 | -0.569 | 0.0636 | -0.222 | -0.123
AGTCAGA | 0.118 | 0.129 | 0.0827 | 0.109 | 0.112 | -0.5 | -0.081 | -0.00555 | 0.0609
GGTATGT | 0.0147 | 0.0594 | 0.586 | 1.27 | 0.00771 | 1.83 | 0.0588 | 0.156 | 0.0885
CATCACG | -0.0465 | 0.00166 | -0.921 | -0.107 | -0.0673 | -1.11 | 0.117 | -0.0622 | -0.074
GTAGTGA | -0.0105 | -0.0186 | 0.0481 | 0.515 | -0.0769 | 0.495 | 0.05 | -0.0544 | -0.0724
GGCGGAC | -0.123 | -0.0735 | 0.688 | 1.72 | -0.141 | 2.07 | 0.143 | 0.0221 | -0.0166
TACATCT | -0.131 | -0.162 | -2.04 | -2.82 | -0.00682 | -1.02 | -2.21 | -0.00461 | -0.286
ATTTCGT | -0.117 | -0.124 | -0.564 | -1.14 | 0.0293 | -1.22 | -0.273 | -0.0875 | -0.154
GTGCGAT | 0.0676 | -0.00349 | 0.00862 | 0.264 | 0.0216 | -0.0436 | 0.101 | 0.0235 | -0.0102
CAACAAT | 0.171 | 0.153 | -0.492 | -2.14 | 0.0967 | -0.448 | -0.18 | 0.171 | 0.0258
ACAACGC | 0.0248 | 0.0368 | -0.368 | -0.327 | 0.0612 | -0.846 | 0.216 | -0.0534 | -0.0977
CGCCGCT | 0.0957 | 0.00859 | -0.19 | -0.625 | -0.12 | -0.433 | 0.0422 | 0.0192 | 0.0487

Reference: the supplement of paper PMC7826260
